{"source": "paper PMC4336329", "about": "(PLoS ONE, 2015)", "note": "Hit rate of the full screen: of about 310,000 compounds, about 14,000 (4.5%) showed an effect of 50% or more. The effect is printed as a negative number. The list shows a part of the results. Where a SMILES comes first, the peptide text is derived from it. The star is where a group is joined. Boc = CC(C)(C)OC(=O)*; Bn = c1ccc(C*)cc1;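 also: peak tail current of the secondary pulse compared with the same well before compound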", "data": [{"target": "human ether-à-go-go-related gene (hERG) potassium channel (human, UniProt Q12809)", "sequence (Q12809 whole entry, looked up)": "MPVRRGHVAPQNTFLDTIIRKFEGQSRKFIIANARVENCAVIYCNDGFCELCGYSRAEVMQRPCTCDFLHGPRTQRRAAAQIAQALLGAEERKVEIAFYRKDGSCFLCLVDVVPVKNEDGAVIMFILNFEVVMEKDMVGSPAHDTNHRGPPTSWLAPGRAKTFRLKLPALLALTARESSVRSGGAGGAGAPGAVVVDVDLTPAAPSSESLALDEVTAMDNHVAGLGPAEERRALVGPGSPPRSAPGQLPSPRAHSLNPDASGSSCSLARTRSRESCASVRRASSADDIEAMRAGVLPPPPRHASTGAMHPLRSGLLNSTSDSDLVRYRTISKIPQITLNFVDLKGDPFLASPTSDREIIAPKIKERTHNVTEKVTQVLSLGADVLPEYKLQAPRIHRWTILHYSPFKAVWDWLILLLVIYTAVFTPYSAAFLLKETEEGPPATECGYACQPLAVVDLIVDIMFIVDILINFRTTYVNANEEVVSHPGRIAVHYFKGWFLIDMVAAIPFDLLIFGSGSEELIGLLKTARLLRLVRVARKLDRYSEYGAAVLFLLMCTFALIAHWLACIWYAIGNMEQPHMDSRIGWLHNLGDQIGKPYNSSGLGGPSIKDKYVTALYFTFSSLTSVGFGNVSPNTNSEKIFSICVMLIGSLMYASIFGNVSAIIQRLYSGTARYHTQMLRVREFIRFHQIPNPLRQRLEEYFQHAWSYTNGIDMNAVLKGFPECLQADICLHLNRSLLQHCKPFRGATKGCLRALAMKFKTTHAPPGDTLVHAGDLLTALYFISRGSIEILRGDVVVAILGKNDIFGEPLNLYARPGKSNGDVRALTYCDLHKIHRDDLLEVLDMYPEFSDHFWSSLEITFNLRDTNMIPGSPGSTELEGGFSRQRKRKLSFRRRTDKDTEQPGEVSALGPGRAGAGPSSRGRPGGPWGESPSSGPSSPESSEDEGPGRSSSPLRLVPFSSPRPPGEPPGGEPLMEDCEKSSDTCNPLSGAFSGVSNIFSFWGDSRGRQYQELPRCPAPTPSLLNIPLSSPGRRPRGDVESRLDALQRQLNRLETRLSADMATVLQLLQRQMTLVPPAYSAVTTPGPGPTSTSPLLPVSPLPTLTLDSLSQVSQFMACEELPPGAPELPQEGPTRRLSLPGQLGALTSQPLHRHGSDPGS", "assay": "primary screen, population patch clamp on CHO cells stably expressing hERG", "units": {"hERG current change (%, negative = inhibition) at 10uM": "%"}, "values": [{"molecule": "CCNS(=O)(=O)c1ccc(CCC(=O)N2CCc3ccccc3C2)cc1", "hERG current change (%, negative = inhibition) at 10uM": -27}, {"molecule": "COc1cccc(NC(=O)COc2ccc(C(=S)N3CCN(C)CC3)cc2OC)c1", "hERG current change (%, negative = inhibition) at 10uM": 1.36}, {"molecule": "CCOCC(=O)Nc1cc(C(=O)OC)cc(C(=O)OC)c1", "hERG current change (%, negative = inhibition) at 10uM": 10.8}, {"molecule": "COc1cc(OC)cc(C(=O)NNC(=S)Nc2ccc(S(N)(=O)=O)cc2)c1", "hERG current change (%, negative = inhibition) at 10uM": 11.2}, {"molecule": "CCN(CC)CCNc1nc2nonc2nc1NCCN(CC)CC", "hERG current change (%, negative = inhibition) at 10uM": -0.14}, {"molecule": "Cl.O=C(CN1CCCC1)NC1C2CC3CC(C2)CC1C3", "note": "(centres unmarked)", "hERG current change (%, negative = inhibition) at 10uM": -27.4}, {"molecule": "Cc1ccc(OCCN2CCN(CC(O)Cn3c4ccccc4c4ccccc43)CC2)cc1.O=C(O)C(=O)O", "note": "(centres unmarked)", "hERG current change (%, negative = inhibition) at 10uM": -25.1}, {"molecule": "Cc1ccc(NC(=O)c2ccc3c(c2)CCN3S(C)(=O)=O)cc1C", "hERG current change (%, negative = inhibition) at 10uM": -17.1}, {"molecule": "COC(=O)c1c(NC(=O)c2ccccc2)sc(C(=O)c2ccccc2)c1C", "hERG current change (%, negative = inhibition) at 10uM": -4.52}, {"molecule": "Cc1nc(CC(=O)O)c(-c2ccccc2)s1", "hERG current change (%, negative = inhibition) at 10uM": 9.42}, {"molecule": "Cc1cc2c3c(c1C)C1(C(=O)N3C(C)(C)CC2C)C(C#N)=C(N)Oc2cc(O)ccc21", "note": "(centres unmarked)", "hERG current change (%, negative = inhibition) at 10uM": 8.28}, {"molecule": "CC(C)CC(NC(=O)C(Cc1ccc(OCc2ccccc2)cc1)NC(=O)OC(C)(C)C)C(N)=O", "note": "(centres unmarked) (Boc-Tyr(Bn)-Leu-NH2; configuration not given here)", "hERG current change (%, negative = inhibition) at 10uM": 1.96}, {"molecule": "O=C(CCn1cnc2ccccc21)N=Nc1c(O)[nH]c2ccccc12", "hERG current change (%, negative = inhibition) at 10uM": -0.803}, {"molecule": "CCOc1ccc(NC(N)=O)cc1OCC", "hERG current change (%, negative = inhibition) at 10uM": 6.79}, {"molecule": "CC(=O)Nc1cccc(C(=O)Nc2cccnc2)c1", "hERG current change (%, negative = inhibition) at 10uM": 19.4}, {"molecule": "CC1(C)C(=O)OC(c2ccc([N+](=O)[O-])cc2)C(C)(C)C1=O", "note": "(centres unmarked)", "hERG current change (%, negative = inhibition) at 10uM": 18.4}, {"molecule": "COc1ccc(OC)c(S(=O)(=O)NCCCc2ccccc2)c1", "hERG current change (%, negative = inhibition) at 10uM": 22.2}, {"molecule": "CCOc1ccc(C(=O)c2cc3ccc(O)cc3oc2=O)cc1", "hERG current change (%, negative = inhibition) at 10uM": 31.8}, {"molecule": "Cc1ccc(C(=O)NC2CCN(CC(=O)Nc3ccccc3Cl)CC2)cc1", "hERG current change (%, negative = inhibition) at 10uM": -45}, {"molecule": "CC(=O)Nc1ccc(NC(=O)C(F)(F)F)cc1", "hERG current change (%, negative = inhibition) at 10uM": 26.7}, {"molecule": "CC(C)c1nnc(NC(=O)COc2ccccc2[N+](=O)[O-])s1", "hERG current change (%, negative = inhibition) at 10uM": -2.04}, {"molecule": "CCOc1cccc(-c2nnc3sc(-c4ccco4)nn23)c1", "hERG current change (%, negative = inhibition) at 10uM": 5.72}, {"molecule": "CCCCCCNC(=O)c1cc(S(=O)(=O)N2CCc3ccccc32)ccc1F", "hERG current change (%, negative = inhibition) at 10uM": 14.9}, {"molecule": "COc1ccccc1N1CCN(C(=O)c2cc3cc(C)ccc3[nH]2)CC1", "hERG current change (%, negative = inhibition) at 10uM": 13.9}, {"molecule": "CCc1noc(C)c1C(=O)Nc1nc(-c2ccc(OC)cc2)cs1", "hERG current change (%, negative = inhibition) at 10uM": -6.43}, {"molecule": "CCNCC(O)c1cccc(O)c1", "note": "(centres unmarked)", "hERG current change (%, negative = inhibition) at 10uM": 20.8}, {"molecule": "OCc1nc2ccccc2n1CC(O)Cn1ccc2ccccc21", "note": "(centres unmarked)", "hERG current change (%, negative = inhibition) at 10uM": 1.93}, {"molecule": "COc1cc(/C=N/NC(=S)NCCN2CCOCC2)cc(OC)c1OC", "hERG current change (%, negative = inhibition) at 10uM": -6.67}, {"molecule": "Cc1ccc(-c2nnn(CC(=O)N(Cc3ccc(F)cc3)C(C(=O)NC3CCCC3)c3ccncc3)n2)o1", "note": "(centres unmarked)", "hERG current change (%, negative = inhibition) at 10uM": -12.4}, {"molecule": "CCOc1cc(/C=C2\\C(=O)N(Cc3ccco3)C(C)=C2C(=O)OC)ccc1O", "hERG current change (%, negative = inhibition) at 10uM": -28.9}, {"molecule": "COc1cc(C2NC(C(=O)O)Cc3c2[nH]c2ccccc32)cc(OC)c1OC", "note": "(centres unmarked)", "hERG current change (%, negative = inhibition) at 10uM": 11.4}, {"molecule": "CCc1ccc(CN2CCC(Oc3ccc(C(=O)N4CCCCC4)cc3)CC2)cc1", "hERG current change (%, negative = inhibition) at 10uM": -78.4}, {"molecule": "COc1cccc(/C=N/N2CCN(c3ccncc3S(=O)(=O)N3CCCCC3)CC2)c1", "hERG current change (%, negative = inhibition) at 10uM": -9.67}, {"molecule": "CC(=O)c1c(OC(=O)c2ccco2)c2ccccc2n1C", "hERG current change (%, negative = inhibition) at 10uM": 1.14}, {"molecule": "COC(=O)C1=C(c2ccc(S(C)(=O)=O)cc2)C[C@@H]2CC[C@H]1N2C(=O)NCCCOC(C)C", "hERG current change (%, negative = inhibition) at 10uM": 12.9}, {"molecule": "COc1ccc2c(c1)OCC1=C2CCC2(C)C(=O)CC=C12", "note": "(centres unmarked)", "hERG current change (%, negative = inhibition) at 10uM": 7.52}, {"molecule": "CCOC(=O)C(=NCC1CCCO1)NNc1cc(Cl)ccc1Cl", "note": "(centres unmarked)", "hERG current change (%, negative = inhibition) at 10uM": 3.08}, {"molecule": "CCC(C)(C)NC(=O)/C=C/c1cc(OC)c(OC)c(S(=O)(=O)N2CCc3ccccc32)c1", "hERG current change (%, negative = inhibition) at 10uM": 4.99}, {"molecule": "CC(=O)Oc1ccc2nc(/C=C/c3ccc(C=O)cc3)oc(=O)c2c1", "hERG current change (%, negative = inhibition) at 10uM": 12.7}, {"molecule": "Cn1cccc1/C=N/n1c(-c2ccco2)n[nH]c1=S", "hERG current change (%, negative = inhibition) at 10uM": 18.5}, {"molecule": "O=[N+]([O-])c1ccccc1S(=O)(=O)N1CCN(c2ccc(F)cc2)CC1", "hERG current change (%, negative = inhibition) at 10uM": -37.5}, {"molecule": "CN1CCC(OC(=O)Cc2ccc(Cl)cc2)CC1.Cl", "hERG current change (%, negative = inhibition) at 10uM": -11}, {"molecule": "N#CCc1c(C#N)c(N)nc(N2CCN(S(=O)(=O)c3ccccc3F)CC2)c1C#N", "hERG current change (%, negative = inhibition) at 10uM": -9.75}, {"molecule": "CC(=O)c1ccc(NC(=O)CN2CCN(c3ccccc3)CC2)cc1.Cl", "hERG current change (%, negative = inhibition) at 10uM": -13.6}]}]}
